Experimental data published in PubChem BioAssay AID1347073 (National Center for Advancing Translational Sciences (NCATS), 2019).
In all, about 45,000 compounds went through this assay and about 200 (0.44%) were called active. Not shown: some 7% with an inconclusive outcome. Calls follow the shape of the dose curve; as a rule, active = well fitted activation curve with a large enough effect; inconclusive = small, poorly fitted or top-dose-only effect; inactive = no such curve, though single readings can be large or run the other way. The list shows a part of the results.

Assay: qHTS of TDP-43 Inhibitors: NCGC Sytravon Library Screen; also: 0% is about no effect; nearly all actives have a fitted effect of over 55% in size
Details: yeast TDP-43 toxicity rescue, BacTiter-Glo growth, 24 h; series mostly up to 46.1 µM; growth rescue (activation): at the top concentration
How it was run: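 TDP-43-expressing yeast, pregrown in raffinose, seeded at OD600 0.02 in galactose medium with compound for 24 hr at 30 deg C. Growth read by BacTiter-Glo luminescence, so rescue of toxicity appears as activation.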

SMILES | growth rescue (activation)
O=C(/C(C=Nc1ccc(Br)cc1)=C(/O)c1ccco1)C(F)(F)F | inactive: -12.4%
Cc1cccc(Nc2ncnc3ccc(Br)cc23)c1 | inactive: -12.3%
O=C(NC1CCCCC1)N(Cc1nc2ccccc2c(=O)[nH]1)C1CCCC1 | inactive: 28.3%
Cc1cccc(NC(=O)CSc2nnc(-c3n[nH]c4ccccc34)o2)c1 | inactive: 17.5%
CC1CCCCC12NC(=O)N(CC(=O)NCc1ccccc1Cl)C2=O (stereo unspecified) | inactive: 7.22%
COc1ccccc1OCc1ccc(C(=O)NCC(C)C)o1 | inactive: -6.68%
O=C(NC(=S)Nc1cc(C(F)(F)F)ccc1N1CCOCC1)c1ccco1 | inactive: 15.5%
CCC(=O)Nc1nonc1-c1nc2ccccc2n1Cc1ccc(Cl)c(Cl)c1 | inactive: 9%
CC1CC1c1ccc(/C=C(\C#N)C(=O)Nc2cccc(Cl)c2Cl)o1 (stereo unspecified) | inactive: 15.3%
CC(C)(C)C(=O)Nc1nnc(SCC(=O)NC2CC2)s1 | inactive: 1.18%
O=C(COC(=O)c1cc(=O)[nH]c2ccccc12)NC(=O)NC1CCCCC1 | inactive: 31.6%
COc1ccccc1NC(=O)CN1CCN(c2ccc(F)cc2)CC1 | inactive: -8.31%
Cc1cc(NC(=O)CON=C(N)CC(=O)Nc2ccccc2Cl)ccc1Br | inactive: 2.35%
COc1ccc(CNC(=O)COC(=O)/C=C/c2cccc(Br)c2)cc1 | inactive: 7.61%
C=CCN=C1S/C(=C\c2ccc(Cl)cc2)C(=O)N1CC=C | inactive: 32%
COc1ccc(NC(=O)C2CCN(S(=O)(=O)c3cccc4nonc34)CC2)cc1 | inactive: 6.43%
CCN(CC)CCN1C(=O)C(=O)/C(=C(/O)c2c(C)[nH]c(C(=O)OC)c2C)C1c1ccccc1OC (stereo unspecified) | inactive: 3.42%
CCOC(=O)C1CCN(C(=O)c2ccccc2NS(=O)(=O)c2cc(C)ccc2C)CC1 | inactive: 7.01%
CCOc1ccc(N=CNc2ccc(OCC)cc2)cc1 | inactive: 4.18%
COc1ccc2c(c1)CCc1sc(NC(=O)c3ccc(Cl)cc3)nc1-2 | inactive: 19%
OC(c1ccc(F)c(F)c1)c1nc(-c2ccc(F)c(Cl)c2)cs1 (stereo unspecified) | inactive: -91.9%
COc1cccc(/C=C/C(=O)N2CC(C)OC(C)C2)c1OC (stereo unspecified) | inactive: 4.98%

SMILES | growth rescue (activation)
O=C(O)CCCN1C(=O)/C(=C\c2ccccc2OCc2ccccc2)SC1=S | inactive: -10.9%
Cc1cc(C2=NNC(=NC3CC3)SC2)c(C)n1Cc1ccco1 | inactive: 6.93%
CC(C)Oc1ccc(C(=O)Nc2nc3ccccc3[nH]2)cc1 | inactive: -19%
CCCCNC(=O)C1(C)CCN1C(=O)c1ccccc1Br (stereo unspecified) | inactive: 7.32%
CCN(CC)S(=O)(=O)N1CCC(C(=O)NCc2ccco2)CC1 | inactive: -7.88%
O=[N+]([O-])c1cc(S(=O)(=O)O)cc([N+](=O)[O-])c1NN(c1ccccc1)c1ccccc1 | inactive: -3.15%
Cc1cc(N2C(=O)C3C4CCC(C4)C3C2=O)no1 (stereo unspecified) | inactive: -7.31%
CC(C)c1ccccc1NC(=O)CCCC(=O)O | inactive: 21.1%
CCc1ccc(N(CC(=O)Nc2ccc(OC)cc2OC)S(C)(=O)=O)cc1 | inactive: -16.7%
CN(C)c1ccc(/C=C(\NC(=O)c2ccccc2)C(=O)NCCCn2ccnc2)cc1 | inactive: 2.19%
CCCCn1c(=O)[nH]c(=O)c2c1nc(-c1ccc(OC)c(Br)c1)n2CC(C)C | inactive: 21%
COC(=O)c1ccc(NC(=O)CCc2c(C)nc3c(c(C)nn3-c3ccc(C)cc3)c2C)cc1 | inactive: 1.86%
Cc1nnc(NN)n(N)c1=O | inactive: 3.69%
CCCCN(C=O)c1c(CC)nc2ccc(C(=O)N(CC)CCN(C)C)cn12 | inactive: -0.931%
NC(=O)COC(=O)CNC(=O)c1sc2ccccc2c1Cl | inactive: 7.32%
CCOc1ccc(Br)cc1S(=O)(=O)Nc1ccc(NC(=O)c2ccccc2F)cc1 | inactive: 18%
CCN(CC)S(=O)(=O)c1cc(C(=O)OCC(=O)NC(=O)c2cccn2C)ccc1C | inactive: 3.12%
Cn1c(=O)c2cc(NC(=O)NCCc3ccccc3)ccc2n1Cc1cccc(C(F)(F)F)c1 | inactive: 9.27%
Cc1cc(N/N=C(/CCC(=O)O)C(=O)O)nc2ccccc12 | inactive: 2.29%
NNC(=O)c1ccc(COCC(F)(F)C(F)F)cc1 | inactive: -0.776%
O=C(COC(=O)/C=C/c1ccccc1[N+](=O)[O-])Nc1ccc(S(=O)(=O)N2CCOCC2)cc1 | inactive: 10.1%
CCCCN(C=O)c1c(CC)nc2ccc(C(=O)NCCCN3CCCC3=O)cn12 | inactive: 7.4%

SMILES | growth rescue (activation)
CCOc1ncccc1C(=O)OCc1ccccc1 | inactive: 9.57%
CC(=O)c1sc2nc(-c3ccco3)ccc2c1N | inactive: -17.3%
COC(=O)c1ccc(C2C(C(C)=O)=C(O)C(=O)N2CCO)cc1 (stereo unspecified) | inactive: -6.83%
COc1ccc(S(=O)(=O)c2c(O)cc(C)c(NS(=O)(=O)c3ccccc3)c2C)cc1 | inactive: 7.73%
O=c1c(Cc2ccc(Cl)cc2)c(O)ccn1Cc1cccs1 | inactive: -3.42%
CN(Cc1ccccc1)C(=O)c1ccc2c(c1)NC(=O)C(N1CCOCC1)S2 (stereo unspecified) | inactive: 27.4%
Cc1c(NS(=O)(=O)c2ccc3c(c2)c(=O)n(C)c(=O)n3C)c(=O)n(-c2ccccc2)n1C | inactive: 17%
O=C(NCC(=O)N1CC=C(c2ccccc2)CC1)c1ccc(F)cc1 | inactive: 12%
Cc1sc(NC(=O)CN2CCCC2)nc1-c1ccc2c(c1)CCN2C(=O)c1cccc(F)c1 | inactive: 8.85%
COc1cc(C(=O)NCCOC(=O)c2cccc(N(C)C)c2)cc(OC)c1OC | inactive: 19.1%
CCOc1cc(/C=C2\SC(N3CCCCC3)=NC2=O)ccc1O | inactive: 5.56%
CN(C(=O)CSc1nc(O)cc(=O)n1C1CCCC1)c1ccccc1 | inactive: 3.99%
O=C(c1cccc2ccccc12)N1CCN(c2ccc([N+](=O)[O-])c(NCc3ccco3)c2)CC1 | inactive: -4.26%
COc1ccc(NC(=O)c2cc(C3CCCCN3C(=O)c3ccccc3)on2)c(C)c1 (stereo unspecified) | inactive: 7.36%
O=C1Cc2cc(S(=O)(=O)Nc3ccc(N4CCOCC4)cc3)ccc2N1 | inactive: 0.372%
CC(C)Oc1cccc(C(=O)C2CCCN(C(=O)CCc3cnn(C)c3)C2)c1 (stereo unspecified) | inactive: 0.902%
Cc1oc(-c2cc(F)ccc2F)nc1CN1CCCN(C(=O)c2ccco2)CC1 | inactive: 8.12%
COc1cccc(-c2cnc(C(O)c3ccccc3OC)[nH]2)c1 (stereo unspecified) | inactive: 1.73%
Cc1nn(Cc2ccccc2)c(Cl)c1C(=O)OCC#N | inactive: 10.7%
Cc1c(NC(=O)/C(C#N)=C/C2CC=CCC2)c(=O)n(-c2ccccc2)n1C (stereo unspecified) | inactive: 18.3%
COC(=O)c1ccc(CN2CCC(CO)(Cc3ccc(OC)cc3)CC2)cc1 | inactive: -3.6%
COc1ccc(S(=O)(=O)N2CCCC(C(=O)NCc3ccco3)C2)cc1OC (stereo unspecified) | inactive: -14.5%

SMILES | growth rescue (activation)
N=C1C2=C3Sc4ccccc4N3CCCC2=NN1c1cccc(S(=O)(=O)O)c1 | inactive: 27.2%
O=C(Nc1ccccc1)[C@@H]1CCCN1S(=O)(=O)c1ccc(Cl)cc1 | inactive: 24.2%
CN(CC(=O)N1CCN(c2ccccn2)CC1)S(=O)(=O)c1ccc(Cl)cc1 | inactive: 15.5%
CC1(C)NC(=O)N(CCOCCOc2ccccc2)C1=O | inactive: 10.2%
CC(C)[C@H](Nc1ccc(S(=O)(=O)N2CCOCC2)cc1[N+](=O)[O-])C(=O)OCC(=O)N(C(C)C)C(C)C | inactive: 11.4%
N#C/C(=C/c1ccc(-c2cccc([N+](=O)[O-])c2)o1)C(=O)Nc1nc(-c2cccs2)cs1 | inactive: -9.85%
CC(C)CN1C(=O)c2ccc(C(=O)Nc3ccc(OCC(=O)O)cc3)cc2C1=O | inactive: 1.42%
N#Cc1ccccc1NC(=O)CSc1n[nH]c(=O)n1C1CC1 | inactive: -21.8%
O=C(O)c1ccc(-n2cncn2)c([N+](=O)[O-])c1 | inactive: -18.5%
Cc1ccc(C)c(SCC(=O)NC(=O)Nc2ccc3c(c2)OCCO3)c1 | inactive: 8.85%
CCOC(=O)c1c(C)[nH]c(C(=O)COC(=O)CNC(=O)c2ccc(Cl)cc2)c1C | inactive: 1.72%
COc1cc(/C=C(\C#N)C(=O)NCC2CCCO2)ccc1OCCC(C)C (stereo unspecified) | inactive: -7.16%
Cc1c(C(=O)N(C)Cc2nc3ccccc3c(=O)[nH]2)oc2ccccc12 | inactive: 16.1%
CCOC(=O)c1c(-c2ccccc2)oc2ccc(OCC(O)CN(C)C)cc12 (stereo unspecified) | inactive: -2.12%
CC(=O)c1cc(-c2ccccc2)n(CCC(=O)NC(C)(C)C)c1C | inactive: -5.03%
CN1CCN(C(=O)c2cc3c(=O)n4ccccc4nc3s2)CC1 | inactive: -1%
CC1(C(=O)NC2CCCCC2)CCC(=O)N1Cc1ccc2c(c1)OCO2 (stereo unspecified) | inactive: 1.48%
CCOP(=O)(OCC)C(NC(=O)Nc1cccc(Cl)c1)c1ccccc1 (stereo unspecified) | inactive: -3.26%
Cc1nnc(NS(=O)(=O)c2ccc(F)cc2)s1 | inactive: 4.3%
O=C1OC(c2ccccc2)=N/C1=C\C=C\c1ccco1 | inactive: 20.7%
O=[N+]([O-])c1ccc(N2CCN(Cc3ccccc3)CC2)s1 | inactive: 2.63%
Cc1nc2ccccc2nc1CN1CCC(CO)(CC2CCCCO2)CC1 (stereo unspecified) | inactive: 1.71%

SMILES | growth rescue (activation)
CCNS(=O)(=O)c1ccc(NC(=O)c2ccccc2SCCOC)cc1 | inactive: 4.73%
CC(C)CN1CCN(Cc2cccn2-c2cccnc2)CC1CCO (stereo unspecified) | inactive: 2.83%
C=CCN(CC=C)C(=S)NCCc1ccc(OC)c(OC)c1 | inactive: 27.2%
Cc1cc(C)cc(NC(=S)NC2CC3CCCC(C2)N3C2CC2)c1 (stereo unspecified) | inactive: 4.09%
Cc1ccc(S(=O)(=O)c2nc(NCCCn3ccnc3)sc2Cl)cc1 | inactive: 13.1%
CC1(C(=O)NCc2ccc3c(c2)OCO3)CCN1Cc1csc2ccccc12 (stereo unspecified) | inactive: 3.37%
CC(C)(C)c1ccc(C(=O)NCCCNC(=O)c2cccnc2)cc1 | inactive: 10.4%
NC(=O)CSc1nnc(-c2cnccn2)n1Cc1ccco1 | inactive: -23.2%
CN(C)C(=O)/C=C\c1cn(-c2ccccc2)nc1-c1ccc2c(c1)OCCO2 | inactive: 33.7%
COc1ccc(CC(NC(C)=O)C(=O)NC2CCN(c3nc(C)cc(C)c3C#N)CC2)cc1 (stereo unspecified) | inactive: -0.331%
CN(Cc1ccccn1)C(=O)CC1C(=O)NCCN1Cc1cccc(Oc2ccccc2)c1 (stereo unspecified) | inactive: -15.9%
CCCC(CCC)C(=O)NC1CCN(Cc2ccccc2)CC1 | inactive: 17.3%
CCC(c1n[nH]c(=S)n1-c1ccccc1)N(C)C (stereo unspecified) | inactive: 17.8%
COc1ccccc1NC(=O)c1ccc2c(=O)n3c(nc2c1)CCC3 | inactive: 17.9%
Cc1ccc(S(=O)(=O)N2CCN(C(=O)c3c(-c4ccccc4)noc3C)CC2)c(C)c1 | inactive: -13.5%
O=C(CS(=O)(=O)Cc1ccccc1)Nc1ccc(S(=O)(=O)N2CCOCC2)cc1 | inactive: 7.37%
CC(=O)NC1CC2CCCC(C1)N2C(=O)Nc1cccc(Cl)c1 (stereo unspecified) | inactive: -7.08%
Cc1csc(SCC(=O)NC(=O)NC2CCCC2)n1 | inactive: 14.6%
